Results: article PMC4336329 (PLoS ONE, 2015)
The whole screen tested about 310,000 compounds, of which about 14,000 (4.5%) showed an effect of 50% or more. The effect is printed as a negative number. The list shows a part of the results.

molecular target: human ether-à-go-go-related gene (hERG) potassium channel (human, UniProt Q12809); experiment: primary screen, population patch clamp on CHO cells stably expressing hERG
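Also: peak tail current of the secondary pulse compared with the same well before compound.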

human ether-à-go-go-related gene (hERG) potassium channel, sequence (Q12809 whole entry, looked up): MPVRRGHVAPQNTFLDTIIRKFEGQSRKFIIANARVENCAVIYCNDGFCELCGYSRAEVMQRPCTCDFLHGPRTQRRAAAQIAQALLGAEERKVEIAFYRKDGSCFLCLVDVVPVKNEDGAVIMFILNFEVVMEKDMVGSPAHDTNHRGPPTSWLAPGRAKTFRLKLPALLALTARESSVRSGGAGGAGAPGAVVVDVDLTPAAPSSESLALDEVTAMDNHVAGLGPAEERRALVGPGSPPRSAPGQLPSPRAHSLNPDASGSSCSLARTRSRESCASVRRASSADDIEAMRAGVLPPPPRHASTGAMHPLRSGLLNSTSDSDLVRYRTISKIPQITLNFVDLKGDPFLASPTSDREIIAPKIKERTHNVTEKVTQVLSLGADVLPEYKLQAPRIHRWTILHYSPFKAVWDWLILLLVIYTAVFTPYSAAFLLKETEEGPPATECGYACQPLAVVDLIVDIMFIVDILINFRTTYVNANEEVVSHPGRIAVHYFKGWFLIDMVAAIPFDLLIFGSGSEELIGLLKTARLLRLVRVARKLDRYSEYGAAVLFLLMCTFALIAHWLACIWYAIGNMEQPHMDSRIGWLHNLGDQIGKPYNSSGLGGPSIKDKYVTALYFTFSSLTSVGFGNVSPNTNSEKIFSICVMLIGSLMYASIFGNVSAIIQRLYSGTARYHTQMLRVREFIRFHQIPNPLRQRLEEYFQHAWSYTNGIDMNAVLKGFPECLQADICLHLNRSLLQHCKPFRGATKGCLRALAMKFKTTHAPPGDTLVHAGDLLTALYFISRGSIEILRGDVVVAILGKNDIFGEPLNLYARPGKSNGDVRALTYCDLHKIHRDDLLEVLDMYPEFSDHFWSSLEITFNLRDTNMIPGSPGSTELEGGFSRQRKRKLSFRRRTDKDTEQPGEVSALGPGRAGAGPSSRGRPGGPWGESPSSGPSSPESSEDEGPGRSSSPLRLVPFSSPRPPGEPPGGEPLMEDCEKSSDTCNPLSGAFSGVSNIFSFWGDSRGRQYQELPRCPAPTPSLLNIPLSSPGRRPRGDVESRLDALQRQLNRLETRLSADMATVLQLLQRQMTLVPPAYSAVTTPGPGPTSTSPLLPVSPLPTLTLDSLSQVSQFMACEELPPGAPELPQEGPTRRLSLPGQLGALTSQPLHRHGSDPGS

Row | SMILES | hERG current change (%, negative = inhibition) at 10uM
1 | Nc1ccccc1OCCOc1ccccc1N | 6.9%
2 | COC(=O)Cc1c(C)c2ccc(OCC(=O)N3CCC(C)CC3)c(C)c2oc1=O | -31.8%
3 | CCCc1ncc(C(O)(c2ccccc2)c2ccc(C)cc2)n1C (stereo not shown) | -8.7%
4 | NC(=O)C1CCN(C(=O)CN(c2cccc(Cl)c2)S(=O)(=O)c2ccccc2)CC1 | 4.96%
5 | CCN(CC)C(=O)c1cc2c(=O)n3cccc(C)c3nc2s1 | 15.5%
6 | CCOC(=O)Cn1cc([N+](=O)[O-])c(OC)n1 | 26.2%
7 | CCCNC(=O)c1onc(CSc2ccc(F)cc2)c1C(=O)NCC1CC1 | -62.7%
8 | O=C(c1ccc(N2CCCCC2)c([N+](=O)[O-])c1)N1CCN(S(=O)(=O)c2ccccc2)CC1 | -49.9%
9 | CN(CC(=O)Nc1ccccc1Cl)C(=O)COC(=O)c1ccccc1[N+](=O)[O-] | -6.07%
10 | CCN(CC)CCn1c(=S)[nH]c2ccccc2c1=O | -25.6%
11 | Cc1nc2cc(-c3ccccc3)ccc2o1 | -8.71%
12 | C=CCNC(=O)c1ccccc1NC(=O)c1cccc2ccccc12 | -23.7%
13 | Cc1ccccc1/C=C/c1cccc[n+]1C.[I-] | 19%
14 | O=C(COC(=O)CCNS(=O)(=O)c1ccccc1F)Nc1nnc(-c2ccccc2)o1 | 7.41%
15 | Cc1cc(N2CCCCC2)nc2ccc(NC(=O)c3ccc(Br)o3)cc12 | -52.9%
16 | CCOC(=O)C1(Cc2ccccc2C)CCCN(C(=O)c2ccoc2)C1 (stereo not shown) | -4.49%
17 | O=C(NC(=S)Nc1cc(C(F)(F)F)ccc1N1CCOCC1)c1sc2ccccc2c1Cl | 2.18%
18 | Fc1ccc(Nc2cccc3nccnc23)cc1 | -26.5%
19 | CCN(c1ccc(OC)cc1)S(=O)(=O)N1CCCC(C(=O)NCc2cccc(C)c2)C1 (stereo not shown) | -26.5%
20 | Cc1nc2ccccc2nc1N1CCCC1 | -4.79%
21 | COc1ccc(CNc2ccc(Br)cc2)cc1 | 10%
22 | Cc1ccccc1-n1ccnc1SCC(=O)NCc1ccco1 | 1.87%
23 | Cc1ccc(NC(=O)CN(C(=O)N2CCN(C)CC2)S(=O)(=O)c2ccc(C)cc2)cc1 | -25.7%

Row | SMILES | hERG current change (%, negative = inhibition) at 10uM
24 | CCn1cc(C(=O)Nc2ccc(NC(=O)c3ccco3)cc2)c(=O)c2ccc(C)nc21 | -4.71%
25 | COc1ccc(NC(=O)N2CC(C)OC(C)C2)cc1OC (stereo not shown) | -0.483%
26 | COc1ccccc1C(=O)OCCNC(=O)Cn1cnc2c1c(=O)n(C)c(=O)n2C | 25.7%
27 | CCOc1ccc(NC(=O)c2csc3c2CCCC3)cc1 | 3.72%
28 | CCc1nc(NCCN)c(C#N)c2c1CSC(C)(C)C2 | -18.9%
29 | CCCCOc1ccc(/C=N/NC(=O)C2CCCNC2=O)cc1 (stereo not shown) | -9.28%
30 | Cc1cnc(NCCc2ccccc2)s1 | 1.74%
31 | O=C(CN1C(=O)NC2(CCCC2)C1=O)Nc1ccccc1N1CCCCC1 | 5.4%
32 | O=c1cc(CSc2nc3cc(Cl)ccc3o2)nc2sccn12 | 10.4%
33 | CN(C)C(=O)N=NC(=O)N(C)C | 5.58%
34 | O=c1cc(C23CC4CC(CC(C4)C2)C3)[nH][nH]1 | -5.43%
35 | COCCNCCCCOc1ccc(C)cc1[N+](=O)[O-].O=C(O)C(=O)O | -11.5%
36 | O=[N+]([O-])c1ccc(N2CCOCC2)cc1N1CCCCC1 | -5.12%
37 | CC(C)N(C(=O)CN1CCC(c2nc3ccccc3[nH]2)CC1)C(C)C | -4.13%
38 | Cc1nnc(SCc2cc(=O)oc3cc(O)ccc23)n1Cc1ccccc1 | -10.2%
39 | CCOC(=O)Cc1csc(NC(=S)NC(=O)c2cc(OC)cc(OC)c2)n1 | -1.92%
40 | CCCC1=NN(C(=O)Cc2ccc([N+](=O)[O-])cc2)C(O)(C(F)(F)F)C1 (stereo not shown) | 7.2%
41 | COc1cc(OC)c(C(=O)O/N=C(\N)c2ccc(C)cc2)cc1OC | -12.2%
42 | COCCCN1CN(S(=O)(=O)c2ccc(C)cc2C)c2nc3ccccc3nc21 | -15.9%
43 | O=C(CCC(=O)c1ccc(Br)cc1)Nc1cccc(C(F)(F)F)c1 | 6.69%
44 | CN1CCN(C(=O)CCc2nc(-c3ccc(Cl)cc3)no2)CC1 | -6.62%
45 | COc1ccc(-c2nn3c(-c4ccccn4)nnc3s2)cc1OC | 10.6%
46 | C=CCn1cccc(C(=O)Nc2ccc(C)cc2)c1=O | -7.96%
